Data taken from PubChem BioAssay AID1461 (National Center for Advancing Translational Sciences (NCATS), 2008).
About 2,300 (1%) of roughly 220,000 compounds were called active. The shares of active, inactive and inconclusive entries below differ from those in the screen. Calls come from the whole dose curve; as a rule, active = well fitted inhibition curve with a large enough effect; inconclusive = small, poorly fitted or top-dose-only effect, or effect the other way; inactive = no such curve, though single readings can be large or run the other way. Potencies of inconclusive entries are left out as doubtful fits.

The compounds below were run against Neuropeptide S receptor (Homo sapiens) (UniProt Q6W5P4) (assay: qHTS Assay for Antagonists of the Neuropeptide S Receptor: cAMP Signal Transduction). Conditions: CHO-NPSR cells, cAMP TR-FRET, antagonist mode; series mostly up to 38.3 µM.
Note: nearly all actives have a fitted effect of over 50% in size.
Potency is the fitted concentration of half-maximal effect; tags give direction and shape of the fitted curve.

Chain of UniProt Q6W5P4 (Q6W5P4 whole entry, looked up): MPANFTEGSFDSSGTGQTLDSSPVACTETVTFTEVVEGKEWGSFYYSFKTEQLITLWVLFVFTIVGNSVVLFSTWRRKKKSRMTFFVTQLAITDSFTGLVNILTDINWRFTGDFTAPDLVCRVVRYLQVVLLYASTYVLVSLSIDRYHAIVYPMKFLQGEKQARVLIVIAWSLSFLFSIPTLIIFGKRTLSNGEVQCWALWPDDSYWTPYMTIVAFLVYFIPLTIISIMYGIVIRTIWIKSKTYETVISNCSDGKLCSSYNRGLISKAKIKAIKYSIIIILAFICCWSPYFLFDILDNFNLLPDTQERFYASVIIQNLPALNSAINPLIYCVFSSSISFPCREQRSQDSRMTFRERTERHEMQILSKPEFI

Row | Structure (SMILES) | Potency
1 | Cc1ccc2c(c1)cc(CN(Cc1cccs1)C(=O)c1ccco1)c1nnnn12 | inconclusive [inhibitor, single point]
2 | CCOc1ccc(NC2=NCC(=O)N2CCc2ccccc2)cc1 | inconclusive [inhibitor, single point]
3 | CN(C)CCCN(C(=O)/C=C/c1cccs1)c1nc2c(F)cccc2s1 | inconclusive [inhibitor, single point]
4 | O=C(NC1=C(Nc2ccc(Cl)cc2)C(=O)c2ccccc2C1=O)c1ccccc1 | inactive
5 | CCOC(=O)N/N=C/c1ccc(N(CC)CC)cc1O | inactive
6 | NC(=O)CSc1nc2c(c(=O)n1-c1ccccc1)C1(CCCCC1)Cc1ccccc1-2 | inconclusive [inhibitor, single point]
7 | CN(C)CCCCSC(=N)N | inactive
8 | COc1ccc(C(=O)N[C@H](C(=O)OCc2cc(=O)oc3cc(C)ccc23)C(C)C)cc1 | inactive
9 | CCOC(=O)Cc1csc(NC(=O)c2csc3c2CCCC3)n1 | inconclusive [inhibitor, partial curve]
10 | CC1=C(C)C(=O)C(CCCCC#CCCCC#CCO)=C(C)C1=O | inconclusive [inhibitor, single point]
11 | COc1ccccc1CNC(=O)CSC1=NCCS1 | inactive
12 | O=C(O)C1C2C=CC(C2)C1C(=O)Nc1ccc(C(=O)N2CCCCC2)c(Cl)c1 (stereo not given) | inactive
13 | CCN(CC)S(=O)(=O)c1ccc(N2CCOCC2)c(NC(=O)CNCCc2ccccc2)c1 | inactive
14 | CC(N)(Cc1ccc(O)cc1)C(=O)O (stereo not given) | inconclusive [inhibitor, single point]
15 | CN(N=Nc1ccc([N+](=O)[O-])cc1)c1ccccc1 | inactive
16 | CCCCN(CC)CCCNC(=S)Nc1ccc2nc(N3CCN(CC)CC3)cc(C)c2c1 | inactive
17 | O=S(=O)(c1ccccc1)c1nc(Nc2ccccc2N2CCOCC2)sc1Cl | inconclusive [inhibitor, single point]
18 | NC(=S)n1[nH]c(-c2ccc([N+](=O)[O-])cc2)c(N=Nc2cccc(Cl)c2)c1=O | inactive
19 | Cn1cnnc1SCC(=O)c1ccc2c(c1)OCCO2 | inactive
20 | NCCCCCC(=O)N/N=C/c1coc2ccccc2c1=O | inconclusive [inhibitor, single point]
21 | CCOc1ccc(NC(=O)Nc2cc(OCC(F)(F)F)cc(OCC(F)(F)F)c2)cc1 | inactive
22 | COC(=O)C(NC(=O)c1ccc(F)cc1)(Nc1ncc(S(=O)(=O)c2ccc([N+](=O)[O-])cc2)s1)C(F)(F)F (stereo not given) | inconclusive [inhibitor, single point]
23 | COc1cccc(=O)c2c(C)n(-c3cc(C)cc(C)c3)c(C)c12 | inconclusive [inhibitor, single point]
24 | O=[N+]([O-])c1ccc2nc(-c3ccccn3)[nH]c2c1 | inconclusive [inhibitor, single point]

Row | Structure (SMILES) | Potency
25 | Cc1cc2nc(CCN3CCOCC3)n(S(=O)(=O)c3ccc(C(C)(C)C)cc3)c2cc1C | inconclusive [inhibitor, single point]
26 | Cc1nn(-c2ccccc2)c(Cl)c1C(=O)N1CCN(c2ncnc3c2cnn3-c2ccccc2)CC1 | inconclusive [inhibitor, single point]
27 | CCn1c(=O)cc(OCC(=O)N2CCN(c3cccc(C(F)(F)F)c3)CC2)c2ccccc21 | inconclusive [inhibitor, single point]
28 | Cc1ccc(C2=N/C(=C\c3cccs3)C(=O)N2Nc2ccccc2)cc1 | inconclusive [inhibitor, single point]
29 | CCCc1ccc(-c2c(C)sc(N)c2C#N)cc1 | inconclusive [inhibitor, single point]
30 | O=C(NC1=NCCS1)C1CCCCC1 | inactive
31 | Oc1ccc(Nc2nc(-c3ccc(O)cc3)cs2)cc1 | inconclusive [inhibitor, single point]
32 | CCN(CC)c1ccc(/C=N/O)cc1 | inactive
33 | CCN(c1ccccc1)S(=O)(=O)c1ccc(NC(=S)NC(=O)c2ccc(Br)o2)cc1 | inconclusive [inhibitor, single point]
34 | Cc1ccc(-n2cc3c(-c4cccc(Br)c4)nnc(C)c3n2)cc1 | inconclusive [inhibitor, partial curve]
35 | Cc1nn(-c2ccccc2)c2c1C(O)n1c(nc3ccccc31)S2 (stereo not given) | inconclusive [inhibitor, single point]
36 | CCN(CC)S(=O)(=O)c1ccc(/C(O)=C(\C#N)c2nc3ccccc3n2C)cc1 | inconclusive [inhibitor, partial curve, poor fit]
37 | Cc1c(Cl)cnc(NC(=O)COC(=O)c2cc3c(s2)CCC(C)C3)c1Cl (stereo not given) | inconclusive [activator, single point]
38 | Cc1cccc2c(C(=O)Nc3ccc(Br)cc3)cc(-c3ccccn3)nc12 | inconclusive [inhibitor, single point]
39 | CCOC(=O)c1cc2sccc2n1CCCN1C(=O)c2ccccc2C1=O | inconclusive [inhibitor, partial curve]
40 | Cc1nn2c(N3CCN(C)CC3)cc(C(C)(C)C)nc2c1-c1ccccc1 | inconclusive [activator, partial curve]
41 | Cc1ccc(SC(=O)c2c(C)noc2-c2cc(C)on2)cc1 | inconclusive [inhibitor, single point]
42 | O=C1CCCC(O)=C1C(C#Cc1ccccc1)C1=C(O)CCCC1=O | inactive
43 | CC(=O)Nc1ccc(N=Nc2ccccc2)cc1 | inactive
44 | Cc1ccc(S(=O)(=O)N2CCC(C(=O)Nc3nnc(-c4ccco4)s3)CC2)cc1 | inconclusive [inhibitor, single point]
45 | NC(=O)c1ccsc1NC(=O)c1ccc(S(=O)(=O)N2CCCC2)cc1 | active: 2 µM
46 | NC(=S)NN=C1c2cc(S(=O)(=O)N3CCOCC3)ccc2-c2ccc(S(=O)(=O)N3CCOCC3)cc21 | inactive
47 | Nc1nc(-c2ccccn2)nc(N)c1Cc1ccccc1F | inactive
48 | CCCCCCCCCCCCCCCC[n+]1cccc2ccccc21 | inconclusive [inhibitor, single point]

Row | Structure (SMILES) | Potency
49 | c1ccc(CSc2nnc(-c3ccco3)c(-c3ccco3)n2)cc1 | inconclusive [inhibitor, partial curve]
50 | C/C(=N\NC(=S)NCCc1ccccc1)c1ccc(C)cc1 | inconclusive [inhibitor, full curve, poor fit]
51 | CC1N(C)c2cc(NC(=O)c3cccs3)c(P(=O)(Nc3ccc([N+](=O)[O-])cc3)N3CCOCC3)cc2C1(C)C (stereo not given) | inconclusive [inhibitor, single point]
52 | COc1ccc(S(=O)(=O)NCCOc2ccccc2)cc1OC | inconclusive [inhibitor, single point]
53 | O=C(NCc1ccco1)c1ccc2c(=O)n(Cc3ccco3)c(SCC(=O)N3CCCC3)nc2c1 | inconclusive [inhibitor, partial curve]
54 | Cc1cc(C(=O)N2CCc3c([nH]c4ccccc34)C2c2cccc(Cl)c2)nn1C (stereo not given) | inconclusive [activator, single point]
55 | CCOC(=O)c1c(-c2cccs2)csc1NC(=O)C(C)(C)C | inconclusive [inhibitor, single point]
56 | COc1ccc(Cn2c(=O)[nH]c3cc(C(=O)N4CCN(Cc5ccccc5)CC4)ccc3c2=O)cc1 | inconclusive [inhibitor, partial curve]
57 | O=c1c(-c2ccc(F)cc2)coc2cc(O)ccc12 | inactive
58 | Cc1ccc(-c2nc(CN(Cc3c(C)nn(C)c3C)C(C)C)c(C)o2)o1 | inactive
59 | CC(C)(C)[C@@H]1C=C(C(=O)Nc2ccccc2)O[C@H](OCc2ccc(CO)cc2)C1 | inconclusive [activator, single point]
60 | O=[N+]([O-])c1ccc(/C=N/n2c(-c3cccnc3)n[nH]c2=S)cc1 | inconclusive [inhibitor, single point]
61 | COc1ccc(C=O)cc1COc1ccc(F)cc1F | inactive
62 | COc1ccc(NC(=S)NC(NC(=O)c2cccc(Cl)c2)C(Cl)(Cl)Cl)c([N+](=O)[O-])c1 (stereo not given) | active: 10 µM
63 | CCOc1ccc(OCC)c(NC(=O)CSc2nc3ccccc3c(=O)n2C)c1 | inconclusive [inhibitor, partial curve, poor fit]
64 | CCC(C)N(C(=O)Cn1nnc2ccccc21)C(C(=O)Nc1ccc(F)cc1)c1cccc(OC)c1 (stereo not given) | inconclusive [inhibitor, partial curve, poor fit]
65 | O=C(N=NC(=O)c1ccc2c(O)n(C3CCCCC3)c(O)c2c1)c1cccnc1 | inactive
66 | Nc1ccc(Nc2nc(-c3ccncc3)cs2)cc1 | inconclusive [inhibitor, single point]
67 | O=C(N/N=C(\c1ccccc1)c1cccnc1)C(O)(c1ccccc1)c1ccccc1 | inconclusive [inhibitor, single point]
68 | O=C1c2ccccc2C(=O)N1CCCC(=O)N1CCCc2ccccc21 | inactive
69 | Cc1ccc(-c2noc(CSc3nnc(-c4ccncc4)n3-c3ccc(C)cc3)n2)cc1 | inconclusive [inhibitor, single point]
70 | Nc1c(C(=O)c2ccccc2)sc2nsc(SCCN3CCOCC3)c12 | inconclusive [activator, single point]
